Measured values: PubChem BioAssay AID1347120 (National Center for Advancing Translational Sciences (NCATS), 2019)
In all, about 390,000 compounds went through this assay and about 930 (0.24%) were called active. Inconclusive means that the source gave no clear call. Such entries were picked first, then a sample of the others. Calls come from the whole dose curve; as a rule, active = well fitted activation curve with a large enough effect; inconclusive = small, poorly fitted or top-dose-only effect; inactive = no such curve, though single readings can be large or run the other way. Where the call is inconclusive, the potency comes from a doubtful curve fit.
Potency is the fitted concentration of half-maximal effect; tags give direction and shape of the fitted curve.

Assay: qHTS for Suppressors of FUS Proteinopathy: Primary screen using FUS-linked yeast assay; note: nearly all actives have a fitted effect of over 55% in size;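 for growth rescue (activation): plate controls were DMSO vehicle for no effect and reference control for full effect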
Conditions: S. cerevisiae FUS-expressing, OD600, 24 h; Potency: growth rescue; growth rescue (activation): at 76.6 µM (top of the series)
Description: Several widespread neurodegenerative diseases, including Alzheimer disease, Huntington disease, Frontotemporal Lobar Degeneration (FTLD) and Amyotrophic Lateral Sclerosis (ALS), share a common pathological feature, namely accumulation of specific protein aggregates in diseased tissue. These diseases which is associated with protein misfolding (proteinopathies) have become increasingly problematic as the population ages and life expectancies are extended. Most proteinopathies are currently incurable, a situation confounded by the fact that the basis of neurodegeneration is generally poorly understood. There exists urgent and significant need to find therapeutics that can inhibit the toxicity associated with protein aggregation. A novel approach to understand the underlying mechanisms of neurodegenerative diseases has recently emerged in which the disease conditions are modeled in the yeast (Saccharomyces cerevisiae), a tractable eukaryotic organism with conserved protein quality control mechanisms. Yeast offers quick and reliable genetic manipulations and can be easily tailored to high-throughput screening (HTS).
For this project, a yeast model of the FUS proteinopathies (a spectrum of neurodegenerative diseases that include ALS and a subtype of FTLD) was generated and employed. The cytoplasmic accumulation of the DNA/RNA-binding protein FUS (also known as TLS) is causative to both familial and sporadic forms of ALS and FTLD. This yeast model recapitulates neuronal pathology by showing severe cytotoxicity associated with cytoplasmic accumulation of FUS aggregates and a specific interaction between FUS and TDP-43, another ALS-associated protein. […] Specifically, the cellular accumulation of misfolded FUS that disrupts RNA homeostasis in both yeast and higher eukaryotes. This model was validated to be suitable for quantitative HTS (qHTS) use for finding genetic or chemical factors that restore growth. […] Identified compounds that inhibits FUS-yeast toxicity is flagged, re-acquired, and validated for further investigation and optimization.
NIH Chemical Genomics Center [NCGC]
NIH Molecular Libraries Probe Production Centers Network [MLPCN]
Assay Submitter (PI): Frank Shewmaker PhD, Uniformed Services University of the Health Sciences
Compound CP55940 was used as the positive control. Column 1 was treated with CP55940 titration from 92uM (final concentration, 1:2 dilution), while Column 2 was treated with top dose 92uM. Columns 3 and 4 were treated with DMSO only as negative control to assess background and noise signal.
Four hundred fifty microliter of cultured yeast (in 20mL rich medium) provided by Dr. Shewmaker lab was incubated at 30C at 99% humidity for 3hr. The culture was then spun down at 4000rpm for 5min and the cell pellet was resuspended in 2mL of Sdmin Media + ALU(330) + 2.5% Raffinose. One hundred microliter of the suspension was added to 900uL of water and OD of the solution was obtained. Twenty mL of responding medium (provided by Shewmaker lab) + 2.5% raffinose was added to ensure cell density of 0.1; the solution was incubated overnight. Working cell solution (FUS-yeast in Sdmi + Sdmi + 1X ALU + 2% galactose media) was prepared (final OD at 0.005) and 3uL was dispensed in a 1536-well Aurora high based clear bottom assay plates. Controls and library compounds (at various final concentrations from 40uM to 0.32uM) were added using a 1536-well pin array using the Kalypsys pin-tool. The plates were then incubated for 24hrs in a cell-culture incubator (30C; 99% humidity). Absorbance at 600nm was then read using the PerkinElmer ViewLux plate reader.
For `O=C(O/N=C1\CCCc2ccccc21)c1cccs1`, the “growth rescue (activation)” value was inactive: -4.68%. With `COc1ccc(-c2cc(C3CC3)nc(N)c2C#N)cc1` the “growth rescue (activation)” value was inactive: -12.3%. For `Cc1ccc(Cl)cc1NC(=O)COC(=O)CC(C)(C)CC1=NS(=O)(=O)c2ccccc2N1`, the Potency was inconclusive: 31.6 µM [activator, single point]. With `CC[C@@]12C(=O)N(c3ccc(OC)cc3)C(=O)N1[C@H](c1cccc(C)c1)[C@@H]1C(=O)N(Cc3ccccc3)C(=O)[C@@H]12` the Potency was inconclusive: 15.8 µM [activator, partial curve, poor fit]. For `CCCCn1c(N)c(N(CC(C)C)C(=O)CC(NC(=O)c2ccccc2)c2ccccc2)c(=O)[nH]c1=O` (centres undefined), the Potency was inconclusive: 35.5 µM [activator, single point]. In the case of `CC(C)c1cc(Br)ccc1OCCCN1C(=O)NC(C)(C)C1=O`, the Potency is reported as inconclusive: 50.1 µM [activator, single point]. With `COc1cc(NC(=O)CN2C(=O)c3ccccc3Sc3ccc(C(=O)N4CCCC4)cc32)cc(OC)c1` the Potency was inconclusive: 28.2 µM [activator, partial curve, poor fit]. In the case of `COc1ccc(OC)c(CCNC(=O)c2ccc3c(c2)c(C)c(C)n3Cc2ccccc2)c1`, the Potency is reported as inconclusive: 35.5 µM [activator, partial curve, poor fit]. In the case of `COC(=O)C1=C[C@@H]([C@@H](C)[C@H](OC)c2ccccc2Br)[C@@H]2OCCC[C@H]12`, the “growth rescue (activation)” value is reported as inactive: 13%. For `CCCc1nn2c(=O)cc(COC(=O)c3cccc(NC(=O)c4cccs4)c3)nc2s1`, the “growth rescue (activation)” value was inactive: 3.71%. In the case of `COc1cc(NC(=O)C2CCCN(S(=O)(=O)c3ccc4c(c3)CCCN4C(C)=O)C2)cc(OC)c1` (centres undefined), the Potency is reported as inconclusive: 39.8 µM [activator, partial curve, poor fit]. For `CCc1nn2c(-c3ccccc3OC)ccnc2c1-c1ccccc1`, the Potency was inconclusive: 50.1 µM [activator, single point]. With `Cc1c(C(=O)NCc2ccc(Cl)cc2)sc2nc3n(c(=O)c12)CCCCC3` the “growth rescue (activation)” value was inactive: 41.6%. For `CC1CCCCC1NC(=S)Nc1ccc(SC(F)F)cc1` (centres undefined), the “growth rescue (activation)” value was inactive: -3.31%. For `CCCCC[C@H](O)/C=C/[C@H]1CCC(=O)[C@@H]1CCCCCCC(=O)N1CCCCC1CO` (some centres undefined), the Potency was inconclusive: 25.1 µM [activator, partial curve]. With `CC(/C=C/c1ccco1)=N\NC(=O)c1cc(C)[nH]n1` the Potency was inconclusive: 28.2 µM [activator, partial curve, poor fit]. For `COc1cc(NS(=O)(=O)c2ccc(NC(=O)c3cccc(F)c3)cc2)nc(OC)n1`, the “growth rescue (activation)” value was inactive: 14.4%. With `N/C(=N\OC(=O)c1ccc(F)cc1)c1ccc(Br)cc1` the “growth rescue (activation)” value was inactive: -31.2%. With `COC(=O)CSc1ncc(S(=O)(=O)c2ccccc2)c(=O)[nH]1` the “growth rescue (activation)” value was inactive: 12%. For `COc1ccc(S(=O)(=O)Nc2cccc(-c3ccc(N4CCC(C)CC4)nn3)c2)c(OC)c1`, the “growth rescue (activation)” value was inactive: 10%. In the case of `CNc1cc(NS(=O)(=O)c2ccc(N)cc2)nc(NC)n1`, the Potency is reported as inconclusive: 31.6 µM [activator, partial curve, poor fit]. With `COc1ccc(NC(=O)CN(C)CC(=O)Nc2sc3c(c2C(N)=O)CCC3)cc1` the Potency was inconclusive: 22.4 µM [activator, single point]. For `COc1ccccc1C(=O)NNC(=O)c1nn(Cc2ccccc2)c(=O)c2ccccc12`, the Potency was inconclusive: 50.1 µM [activator, single point]. With `CCC1=Nc2cc(C(=O)NCCN3CCOCC3)ccc2Sc2ccc(Br)cc21` the Potency was inconclusive: 5.01 µM [activator, full curve]. For `COc1ccc(C)cc1Nc1n[n+](-c2ccccc2)c(-c2cc(OC)c(OC)cc2Br)s1`, the Potency was inconclusive: 35.5 µM [activator, partial curve, poor fit]. With `Cc1ccc(-c2noc(CSc3nnc(-c4ccncc4)n3-c3ccc(C)cc3)n2)cc1` the “growth rescue (activation)” value was inactive: 43.9%. With `Cc1nc(N2CCCC2)c2c(C(=O)N3CCN(c4cc(Cl)ccc4C)CC3)c(C)oc2n1` the Potency was inconclusive: 50.1 µM [activator, single point]. With `CN(CCc1ccccc1)C(=O)c1ccc(NC(=O)Cc2ccc(NC(=O)C3CCCN(C(=O)c4ccccc4)C3)cc2)cc1` (centres undefined) the Potency was inconclusive: 50.1 µM [activator, single point]. With `CCCN(CC(=O)Nc1cc(Cl)ccc1Cl)C(=O)/C=C/c1cc(OC)ccc1OC` the Potency was inconclusive: 15.8 µM [activator, partial curve]. With `Cc1ccc(C(C(=O)NC2CCCC2)N(Cc2ccc3c(c2)OCO3)C(=O)c2snc(C(N)=O)c2N)cc1` (centres undefined) the Potency was inconclusive: 8.91 µM [activator, partial curve]. With `COc1cc(CNC(=O)Nc2nc(C(N)Cc3ccc(C(F)(F)F)cc3)cs2)cc(OC)c1OC` (centres undefined) the Potency was inconclusive: 35.5 µM [activator, single point]. For `CCCCN(C)C(=O)c1ccc2c(c1)N(Cc1cccc(F)c1)C(=O)c1ccccc1S2`, the Potency was inconclusive: 25.1 µM [activator, single point]. In the case of `CC(=Nc1cc(C(=O)c2ccccc2)ccc1N)C1=C(O)CC(C)(C)CC1=O`, the Potency is reported as inconclusive: 15.8 µM [activator, partial curve]. In the case of `COc1ccc(NC(=O)c2oc3ccccc3c2NC(=O)C2CCCCC2)c(OC)c1`, the “growth rescue (activation)” value is reported as inactive: -18.8%. In the case of `O=C1C=C(c2cccc(Cl)c2)C[C@@H](c2ccc(Cl)cc2)C1`, the Potency is reported as inconclusive: 39.8 µM [activator, partial curve, poor fit]. For `COc1ccc(N=C2SC(C(=O)Nc3ccc(OC)cc3)CC(=O)N2CCN2CCOCC2)cc1` (centres undefined), the Potency was inconclusive: 3.98 µM [activator, full curve]. In the case of `COc1ccc(NC(=O)CN(c2ccc(OC)c(Cl)c2)S(=O)(=O)c2ccccc2)cc1`, the Potency is reported as inconclusive: 17.8 µM [activator, partial curve]. In the case of `CC(=O)C1=C(O)C(=O)N(c2ccc(Br)cn2)C1c1ccccc1[N+](=O)[O-]` (centres undefined), the Potency is reported as inconclusive: 44.7 µM [activator, single point]. With `COc1ccc(N2CCC(CNC(=O)Nc3ccc(C)c(C)c3)C2)cc1` (centres undefined) the Potency was inconclusive: 50.1 µM [activator, single point].
